# Assay results published in ChEMBL document CHEMBL5606460, “ASAP - DENV-2 NS2B-NS3 protease fluorescence single point” (2024).
# The campaign covered roughly 2,000 compounds. About 110 (5.5%) showed an effect of 50% or more. This is one part of the list.
# Molecular target: Genome polyprotein (dengue virus type 2) (UniProt P29990)
# [1] = Thailand/16681/1984, Concentration 25.0 uM, Number of replicates 1.0
smiles,measurement,setting,value
CC(C)N(Cc1cnn(C)c1)C(=O)C1CCN(c2ccc(C=O)cc2)CC1,inhibition,[1],13.4%
CCCC[C@H](NC(C)=O)C(=O)N[C@@H](C(=O)NCc1ccc(C(N)=O)cc1)c1ccc(OCc2ccccc2)cc1,inhibition,"Thailand/16681/1984, Concentration 49.5 uM, Number of replicates 2.0, Standard deviation 1.1393107429607887 %",-2.14%
same,inhibition,"Thailand/16681/1984, Concentration 99.01 uM, Number of replicates 2.0, Standard deviation 1.3468928227151291 %",-2.15%
same,inhibition,"Thailand/16681/1984, Concentration 198.0 uM, Number of replicates 2.0, Standard deviation 1.6817028564994563 %",-0.786%
O=C1C[C@@H](NS(=O)(=O)c2ccc(Oc3ccccc3Cl)cc2)CCN1,inhibition,"Thailand/16681/1984, Concentration 49.5 uM, Number of replicates 2.0, Standard deviation 1.1905021365747266 %",-5.52%
same,inhibition,"Thailand/16681/1984, Concentration 99.01 uM, Number of replicates 2.0, Standard deviation 1.0784606403673063 %",-3.29%
same,inhibition,"Thailand/16681/1984, Concentration 198.0 uM, Number of replicates 2.0, Standard deviation 1.453680839379123 %",-1%
Cc1cc(CO)c2cccc(Cc3ccccc3NC(=O)c3cnn(Cc4c(C)noc4C)c3)c2n1,inhibition,"Thailand/16681/1984, Concentration 49.95 uM, Number of replicates 2.0, Standard deviation 1.6720482568376416 %",3.34%
same,inhibition,"Thailand/16681/1984, Concentration 99.9 uM, Number of replicates 2.0, Standard deviation 1.804289051662393 %",5.99%
O=C(Nc1ccc(Cl)c2cccnc12)c1cnccn1,inhibition,"Thailand/16681/1984, Concentration 49.95 uM, Number of replicates 2.0, Standard deviation 4.683142014666169 %",-9.23%
same,inhibition,"Thailand/16681/1984, Concentration 99.9 uM, Number of replicates 2.0, Standard deviation 6.492893297895574 %",-7.9%
C[C@H]1CN(C(=O)C2CCN(c3ccc(C=O)cc3)CC2)CCN1C(=O)OC(C)(C)C,inhibition,[1],11%
O=Cc1ccc(N2CCC(C(=O)NCc3c(F)cccc3C(F)(F)F)CC2)cc1,inhibition,[1],15%
N[C@@H](Cc1ccc2ccccc2n1)C(=O)O,inhibition,"Thailand/16681/1984, Concentration 49.95 uM, Number of replicates 2.0, Standard deviation 1.7233273158964821 %",-3.46%
same,inhibition,"Thailand/16681/1984, Concentration 99.9 uM, Number of replicates 2.0, Standard deviation 1.4667685751237545 %",-2.8%
O=C1NCCN(S(=O)(=O)c2ccc(Oc3ccccc3Cl)cc2)c2cc(F)c(F)cc21,inhibition,"Thailand/16681/1984, Concentration 49.5 uM, Number of replicates 2.0, Standard deviation 0.05491442625752456 %",0.056%
same,inhibition,"Thailand/16681/1984, Concentration 99.01 uM, Number of replicates 2.0, Standard deviation 1.2458412858443186 %",1.93%
same,inhibition,"Thailand/16681/1984, Concentration 198.0 uM, Number of replicates 2.0, Standard deviation 0.56729017463566 %",6.51%
CNC(=O)c1cc(Cl)ccc1NS(=O)(=O)c1nccn1C,inhibition,"Thailand/16681/1984, Concentration 49.5 uM, Number of replicates 2.0, Standard deviation 3.5638444498396873 %",-8.35%
CC(C)CN1CC[C@H](CNC(=O)C2CCN(c3ccc(C=O)cc3)CC2)C1,inhibition,[1],8.27%
O=Cc1ccc(N2CCC(C(=O)NCCc3ccc(O)c(O)c3)CC2)cc1,inhibition,[1],41.1%
CC1CCN(CCCCNC(=O)C2CCN(c3ccc(C=O)cc3)CC2)CC1,inhibition,[1],13.7%
O=Cc1ccc(N2CCC(C(=O)N3CCN(c4ccc(Br)cn4)CC3)CC2)cc1,inhibition,[1],-2%
CCOc1ccccc1-c1cccc2c(N)ccnc12,inhibition,"Thailand/16681/1984, Concentration 49.95 uM, Number of replicates 2.0, Standard deviation 5.626680540926734 %",-3.85%
same,inhibition,"Thailand/16681/1984, Concentration 99.9 uM, Number of replicates 2.0, Standard deviation 6.306982453295959 %",-3.22%
CCN(Cc1cc(Br)ccc1F)C(=O)C1CCN(c2ccc(C=O)cc2)CC1,inhibition,[1],15.9%
O=Cc1ccc(N2CCC(C(=O)NC3CCN(CC(=O)NC4CC4)CC3)CC2)cc1,inhibition,[1],15.3%
O=S(=O)(Nc1ccc(Oc2ccccc2Cl)cc1)c1c[nH]c2ccc(Cl)cc12,inhibition,"Thailand/16681/1984, Concentration 49.5 uM, Number of replicates 2.0, Standard deviation 1.0638417530802116 %",4.45%
same,inhibition,"Thailand/16681/1984, Concentration 99.01 uM, Number of replicates 2.0, Standard deviation 0.5497119042335245 %",7.95%
same,inhibition,"Thailand/16681/1984, Concentration 198.0 uM, Number of replicates 2.0, Standard deviation 4.968033131413375 %",46.3%
Cc1cc(Br)cc(NC(=O)C2CCN(c3ccc(C=O)cc3)CC2)c1,inhibition,[1],13.7%
N#Cc1cccc(-c2nc3c(C(=O)NCc4ccccn4)cc(Cl)cc3[nH]2)c1,inhibition,"Thailand/16681/1984, Concentration 99.5 uM, Number of replicates 2.0, Standard deviation 0.024300186977441064 %",-1.93%
same,inhibition,"Thailand/16681/1984, Concentration 295.6 uM, Number of replicates 2.0, Standard deviation 0.2349015826654049 %",5.47%
O=Cc1ccc(N2CCC(C(=O)Nc3c(Br)cncc3[N+](=O)[O-])CC2)cc1,inhibition,[1],13.2%
CNC(=O)c1cc(C#N)ccc1NS(=O)(=O)c1ccc(Oc2ccccc2Cl)cc1,inhibition,"Thailand/16681/1984, Concentration 49.5 uM, Number of replicates 2.0, Standard deviation 0.4271842721165937 %",49.4%
same,inhibition,"Thailand/16681/1984, Concentration 99.01 uM, Number of replicates 2.0, Standard deviation 0.14972718509713318 %",88.8%
same,inhibition,"Thailand/16681/1984, Concentration 198.0 uM, Number of replicates 2.0, Standard deviation 0.1152868035427591 %",94%
CN(Cc1nc2ccccc2n1C)C(=O)C1CCN(c2ccc(C=O)cc2)CC1,inhibition,[1],14.9%
O=Cc1ccc(N2CCC(C(=O)NCCOc3ccccc3Cl)CC2)cc1,inhibition,[1],12.6%
O=C1c2c(O)ccc([N+](=O)[O-])c2C(=O)c2c([N+](=O)[O-])ccc(O)c21,inhibition,"Thailand/16681/1984, Concentration 50.0 uM, Number of replicates 2.0, Standard deviation 4.5365390911554515 %",5.08%
same,inhibition,"Thailand/16681/1984, Concentration 100.0 uM, Number of replicates 2.0, Standard deviation 14.84324878588446 %",27.8%
CN(C(=O)C1CCN(c2ccc(C=O)cc2)CC1)[C@H]1CS(=O)(=O)C[C@@H]1O,inhibition,[1],12.1%
